No constants are given. Whether binding was seen depends on the method and setting. In cells and extracts the contact can be indirect. Some results given as binding are weak or reduced against the parent protein; the word gives no strength. Sequences can lack the tags named with a protein.
Tests used:
Experiment in all cases: co-IP; HEK293T co-expressing Flag-FUS and the indicated HA-AFF4 proteins; lysis in 0.15% Triton X-100, 20 mM Tris-HCl pH 7.6, 200 mM NaCl, 0.72 mM EDTA, 10% glycerol, 1 mM DTT; IP with anti-HA antibody overnight; western blot with anti-Flag
HA-AFF4 (1–650) (human) = molecular target: T1, HA-AFF4 (1–650) (human) (UniProt Q9UHB7)
T1 sequence: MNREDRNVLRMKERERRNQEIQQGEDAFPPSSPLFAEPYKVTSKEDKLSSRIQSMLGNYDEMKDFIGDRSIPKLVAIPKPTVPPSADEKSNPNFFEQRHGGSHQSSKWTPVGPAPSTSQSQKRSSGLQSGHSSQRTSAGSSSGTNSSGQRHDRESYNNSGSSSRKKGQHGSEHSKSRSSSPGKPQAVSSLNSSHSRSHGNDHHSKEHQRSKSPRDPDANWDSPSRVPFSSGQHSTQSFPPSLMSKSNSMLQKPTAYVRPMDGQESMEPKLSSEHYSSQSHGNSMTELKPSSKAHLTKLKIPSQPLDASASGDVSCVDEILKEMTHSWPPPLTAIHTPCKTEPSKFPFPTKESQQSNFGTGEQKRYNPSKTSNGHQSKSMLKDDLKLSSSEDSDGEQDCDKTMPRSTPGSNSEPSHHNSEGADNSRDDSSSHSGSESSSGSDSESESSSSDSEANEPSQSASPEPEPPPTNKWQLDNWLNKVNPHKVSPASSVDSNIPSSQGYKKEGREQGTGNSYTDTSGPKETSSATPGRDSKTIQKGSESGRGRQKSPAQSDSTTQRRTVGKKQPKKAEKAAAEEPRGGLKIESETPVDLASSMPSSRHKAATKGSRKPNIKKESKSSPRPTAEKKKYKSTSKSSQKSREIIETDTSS

By UniProt entry, the sequences of proteins in these tests, tags left out.
UniProt P35637: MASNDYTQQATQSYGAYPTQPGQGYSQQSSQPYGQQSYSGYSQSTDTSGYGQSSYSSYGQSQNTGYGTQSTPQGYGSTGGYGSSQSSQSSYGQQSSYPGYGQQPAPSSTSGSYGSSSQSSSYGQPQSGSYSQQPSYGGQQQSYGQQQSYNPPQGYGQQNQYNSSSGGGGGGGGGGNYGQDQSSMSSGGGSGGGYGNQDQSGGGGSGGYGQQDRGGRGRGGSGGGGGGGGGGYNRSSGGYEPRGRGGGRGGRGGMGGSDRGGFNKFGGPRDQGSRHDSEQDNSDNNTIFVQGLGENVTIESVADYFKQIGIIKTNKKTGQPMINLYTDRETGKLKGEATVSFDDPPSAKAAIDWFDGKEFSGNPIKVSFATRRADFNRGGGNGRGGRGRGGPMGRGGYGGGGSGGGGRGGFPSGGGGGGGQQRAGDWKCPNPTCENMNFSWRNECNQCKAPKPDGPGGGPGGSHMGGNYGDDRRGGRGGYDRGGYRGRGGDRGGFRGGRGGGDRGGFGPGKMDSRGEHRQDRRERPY

HA-AFF4 (1–400) (human) = molecular target: T2, HA-AFF4 (1–400) (human) (UniProt Q9UHB7)
T2 sequence: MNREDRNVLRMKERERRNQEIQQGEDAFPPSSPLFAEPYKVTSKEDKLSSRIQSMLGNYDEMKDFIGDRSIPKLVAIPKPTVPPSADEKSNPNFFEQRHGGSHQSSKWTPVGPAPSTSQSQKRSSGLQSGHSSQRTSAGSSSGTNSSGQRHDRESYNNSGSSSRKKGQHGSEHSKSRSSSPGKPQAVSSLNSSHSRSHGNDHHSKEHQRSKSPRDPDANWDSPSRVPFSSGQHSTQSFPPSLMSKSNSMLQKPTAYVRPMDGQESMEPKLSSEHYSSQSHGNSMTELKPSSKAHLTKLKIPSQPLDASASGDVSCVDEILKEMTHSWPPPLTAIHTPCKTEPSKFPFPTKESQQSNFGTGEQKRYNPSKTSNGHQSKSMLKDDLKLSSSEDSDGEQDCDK

[1] = molecular target: T3, full length HA-AFF4 (1–1163) (human) (UniProt Q9UHB7)
T3 sequence: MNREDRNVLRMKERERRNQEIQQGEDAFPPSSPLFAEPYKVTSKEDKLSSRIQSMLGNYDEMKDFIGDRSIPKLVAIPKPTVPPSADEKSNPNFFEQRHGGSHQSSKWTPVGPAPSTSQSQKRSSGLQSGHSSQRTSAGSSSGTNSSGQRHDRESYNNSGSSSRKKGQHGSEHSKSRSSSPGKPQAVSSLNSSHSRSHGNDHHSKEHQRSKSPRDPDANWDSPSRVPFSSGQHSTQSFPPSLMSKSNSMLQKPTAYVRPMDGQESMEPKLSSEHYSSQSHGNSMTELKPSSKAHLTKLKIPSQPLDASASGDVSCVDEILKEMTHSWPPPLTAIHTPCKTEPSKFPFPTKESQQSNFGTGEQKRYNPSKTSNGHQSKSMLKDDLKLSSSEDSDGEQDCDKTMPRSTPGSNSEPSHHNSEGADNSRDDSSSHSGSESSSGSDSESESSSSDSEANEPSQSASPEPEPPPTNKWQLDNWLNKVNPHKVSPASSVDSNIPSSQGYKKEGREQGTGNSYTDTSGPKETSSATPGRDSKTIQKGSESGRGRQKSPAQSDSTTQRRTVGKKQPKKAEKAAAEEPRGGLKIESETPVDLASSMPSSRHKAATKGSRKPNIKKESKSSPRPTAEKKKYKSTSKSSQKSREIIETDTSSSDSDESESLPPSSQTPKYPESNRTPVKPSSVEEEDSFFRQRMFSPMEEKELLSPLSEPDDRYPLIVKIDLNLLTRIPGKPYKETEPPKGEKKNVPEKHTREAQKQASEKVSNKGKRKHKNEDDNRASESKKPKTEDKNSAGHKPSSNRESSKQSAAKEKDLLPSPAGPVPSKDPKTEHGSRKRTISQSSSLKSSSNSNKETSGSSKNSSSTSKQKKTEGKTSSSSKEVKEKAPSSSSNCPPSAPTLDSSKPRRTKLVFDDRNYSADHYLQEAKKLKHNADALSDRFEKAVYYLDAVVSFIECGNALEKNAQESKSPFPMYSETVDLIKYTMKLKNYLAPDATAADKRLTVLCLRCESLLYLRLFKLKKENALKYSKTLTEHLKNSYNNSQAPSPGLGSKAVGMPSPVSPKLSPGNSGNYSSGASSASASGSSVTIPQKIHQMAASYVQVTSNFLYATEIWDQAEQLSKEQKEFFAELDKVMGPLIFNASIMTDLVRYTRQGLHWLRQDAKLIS

HA-AFF4 (1–850) (human) = molecular target: T4, HA-AFF4 (1–850) (human) (UniProt Q9UHB7)
T4 sequence: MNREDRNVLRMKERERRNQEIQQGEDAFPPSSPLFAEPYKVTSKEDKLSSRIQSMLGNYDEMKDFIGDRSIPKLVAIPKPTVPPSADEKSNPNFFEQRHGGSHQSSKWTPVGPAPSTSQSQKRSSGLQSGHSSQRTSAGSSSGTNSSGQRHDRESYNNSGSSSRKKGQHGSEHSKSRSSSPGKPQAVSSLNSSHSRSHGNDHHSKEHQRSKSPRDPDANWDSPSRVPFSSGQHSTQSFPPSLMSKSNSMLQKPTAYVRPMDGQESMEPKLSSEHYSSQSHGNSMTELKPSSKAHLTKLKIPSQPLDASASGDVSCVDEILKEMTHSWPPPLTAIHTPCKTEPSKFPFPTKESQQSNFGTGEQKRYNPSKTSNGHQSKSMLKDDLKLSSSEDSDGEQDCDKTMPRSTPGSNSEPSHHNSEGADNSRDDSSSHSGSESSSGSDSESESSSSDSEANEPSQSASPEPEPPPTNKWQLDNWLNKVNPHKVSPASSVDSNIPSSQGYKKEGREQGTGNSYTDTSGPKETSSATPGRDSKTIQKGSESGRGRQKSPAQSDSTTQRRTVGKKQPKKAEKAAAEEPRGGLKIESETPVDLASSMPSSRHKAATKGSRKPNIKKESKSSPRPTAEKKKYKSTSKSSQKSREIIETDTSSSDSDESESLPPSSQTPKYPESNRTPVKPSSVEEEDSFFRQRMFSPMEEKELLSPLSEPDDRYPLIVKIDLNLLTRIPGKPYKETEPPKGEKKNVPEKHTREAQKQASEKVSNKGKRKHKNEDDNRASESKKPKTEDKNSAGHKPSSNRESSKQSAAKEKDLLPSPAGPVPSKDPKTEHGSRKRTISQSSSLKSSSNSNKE

HA-AFF4 (1–300) (human) = molecular target: T5, HA-AFF4 (1–300) (human) (UniProt Q9UHB7)
T5 sequence: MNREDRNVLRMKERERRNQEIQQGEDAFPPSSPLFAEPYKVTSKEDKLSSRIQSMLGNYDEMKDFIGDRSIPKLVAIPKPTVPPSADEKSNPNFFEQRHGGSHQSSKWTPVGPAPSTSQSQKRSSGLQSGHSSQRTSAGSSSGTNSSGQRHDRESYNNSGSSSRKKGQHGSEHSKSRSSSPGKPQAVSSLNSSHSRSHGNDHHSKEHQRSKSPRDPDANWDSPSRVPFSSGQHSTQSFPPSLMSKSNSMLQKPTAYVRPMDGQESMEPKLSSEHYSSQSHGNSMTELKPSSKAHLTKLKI

Flag-FUS (from UniProt P35637 1-526)
binding (HA-AFF4 (1–650) (human)): binds | binding (HA-AFF4 (1–400) (human)): binds | binding [1]: binds | binding (HA-AFF4 (1–850) (human)): binds | binding (HA-AFF4 (1–300) (human)): no binding
